# According to PubChem BioAssay AID463173 (ICCB-Longwood Screening Facility, Harvard Medical School, 2010):
# The whole screen tested about 52,000 compounds, of which about 4,300 (8.3%) were called active. Cut-off read from the data, not from the text of the source: active = survival mostly below about 52% (no sharp cut-off); inactive = mostly above about 56%. Some of the results follow.
# Test system: DeltatarO mutant
# Assay: S. aureus survival, RN4220 and DeltatarO strains – OD600, teichoic acid synthesis inhibitors, primary screen (AID 463173)
# Settings: S. aureus RN4220 wild type/DeltatarO growth, OD600, 18 h, active compounds read low, screened at 18.75 µg/mL (by protocol)
row,SMILES,survival
1,COc1cccc(-c2csc(N3CCN(C(=S)NCc4ccco4)CC3)n2)c1,inactive: 91%
2,COc1cccc(C2CC(=O)Nc3c2c(=O)[nH]c2ncnn32)c1OC (stereo not drawn),inactive: 60%
3,CCN(C(=O)CSc1nc(-c2ccccc2)no1)c1cccc(C)c1,active: -3%
4,Cc1cccc2cc(CN(C(=O)c3cccc(Cl)c3)c3ccccc3)c(=O)[nH]c12,inactive: 76%
5,Cc1c(C(=O)Nc2ccccc2)sc2nc(-c3cc4ccccc4oc3=O)[nH]c(=O)c12,inactive: 66%
6,O=C(C1CCCN(S(=O)(=O)c2ccc(Cl)cc2)C1)N1CCCC1 (stereo not drawn),inactive: 86%
7,COc1ccc(-c2nnn(CC(=O)N(Cc3ccccc3)C(C)C(=O)NC3CCCC3)n2)cc1OC (stereo not drawn),inactive: 84%
8,CCc1ccc2oc(C(=O)Nc3cc(Cl)ccc3OC)cc(=O)c2c1,inactive: 65%
9,Fc1ccc(Nc2nc(-c3cccc(Cl)c3)c3c(n2)-c2ccccc2OC3)cc1,inactive: 87%
10,Cc1ccc(NC(=O)CCn2nc(-c3ccccc3)c3ccccc3c2=O)c(C)c1,active: 52%
11,C=CCc1c(C)nc(-c2ccccc2)nc1NN,inactive: 92%
12,O=C(Nc1ccc2nc(SCC(=O)N3CCCc4ccccc43)sc2c1)c1ccccc1F,inactive: 76%
13,O=C(Nc1cccc(C(=O)N2CCN(c3ccccc3)CC2)c1)c1nsc2ccccc12,inactive: 86%
14,CCc1ccc(C2=C(C)C(N3CCC(C(=O)Nc4ccc(F)cc4)CC3)=NS2(=O)=O)cc1,inactive: 80%
15,Cc1cc2ccccc2n1CCNC(=O)c1ccccc1F,inactive: 84%
16,O=C(NCC(c1ccc2c(c1)OCO2)N1CCN(c2ccccc2)CC1)C(=O)Nc1ccccc1 (stereo not drawn),inactive: 75%
17,CC(C)c1ccc(S(=O)(=O)c2nnn3c2nc(NCc2cccs2)c2sccc23)cc1,inactive: 76%
18,O=C(OCc1cc(=O)n2nc(C3CC3)sc2n1)c1ccc(NC(=O)c2ccccc2Cl)cc1,inactive: 82%
19,Cc1cccc(NC(=O)c2ccc(F)c(S(=O)(=O)NCc3ccc4c(c3)OCO4)c2)c1,inactive: 79%
20,Cc1ccc(C(=O)NCCSc2c[nH]c3ccccc23)cc1C,active: 46%

row,SMILES,survival
1,Cc1ccn2c(Nc3ccc4c(c3)OCO4)c(-c3ccc(C)o3)nc2c1,inactive: 81%
2,Cc1cc(C)cc(NC(=O)CSc2oc(-c3cccs3)nc2S(=O)(=O)c2ccc(Br)cc2)c1,inactive: 79%
3,COC(=O)c1sc2cccc(F)c2c1S(=O)(=O)NC(C)c1ccccc1 (stereo not drawn),inactive: 55%
4,CCOC(=O)C1CCN(c2nc3c(S(=O)(=O)c4ccc(CC)cc4)nnn3c3ccc(Cl)cc23)CC1,inactive: 101%
5,Cc1cccn2c(=O)c3cc(C(=O)NC(C)(C)C)n(C)c3nc12,inactive: 61%
6,CC(=O)c1ccc(NC(=O)C2CCCN(S(=O)(=O)c3ccc(Br)s3)C2)cc1 (stereo not drawn),inactive: 120%
7,CCOc1ccc(NC(=O)c2sc3nc4n(c(=O)c3c2C)CCCC4)cc1,inactive: 57%
8,Cc1cc(Cl)ccc1NC(=O)CS(=O)(=O)c1cccc2nsnc12,inactive: 125%
9,O=C(NC(=S)NCc1ccccc1)c1ccco1,inactive: 71%
10,CCSc1ncc(Cl)c(C(=O)Nc2ccc(S(=O)(=O)N3CCCCC3CC)cc2)n1 (stereo not drawn),inactive: 82%
11,CCOc1ccc(NC(c2ccc(Cl)cc2)c2nnc(-c3cccc(F)c3)o2)cc1 (stereo not drawn),inactive: 90%
12,Cc1ccc(CN(C(=O)COc2cccc(Cl)c2)c2ccccn2)o1,inactive: 67%
13,O=C1O/C(=C/C(=O)N2CCOCC2)c2ccccc21,inactive: 97%
14,COc1cc(O)ccc1-c1nc2ccc(Br)cn2c1Nc1ccccc1C,active: 46%
15,CCCNC(=O)c1cccc(C)c1,inactive: 58%
16,O=C(Nc1ccccc1F)C(c1ccccc1)N1Cc2ccccc2C1=O (stereo not drawn),inactive: 72%
17,O=C(CSc1nccn1Cc1ccc(F)cc1)NC1CCCC1,inactive: 98%
18,COc1ccc(NC(=O)C2(S(=O)(=O)c3ccc(C)cc3)CC2)c(OC)c1,inactive: 96%
19,CCOC(=O)C1CCN(C(=O)c2ccc3c(=O)n4nc(Nc5ccccc5)sc4nc3c2)CC1,inactive: 117%
20,COc1ccc(-c2c(C)c3ccc(O)c(CN4CCCCC4C)c3oc2=O)cc1OC (stereo not drawn),inactive: 71%

row,SMILES,survival
1,O=C(NC1CC(=O)N(c2cccc(F)c2)C1)c1ccc(S(=O)(=O)N2CCCCC2)cc1 (stereo not drawn),inactive: 91%
2,COc1ccc(OC)c(-n2nnc(-c3nc(-c4ccc5c(c4)OCO5)no3)c2C)c1,inactive: 75%
3,COC(=O)c1ccccc1NC(=O)CCn1c(=O)c2cccn2c2cccnc21,inactive: 80%
4,Cc1ccc(OCC(=O)Nc2nnc(SCc3cc(=O)n4cc(C)ccc4n3)s2)cc1,active: 6%
5,COc1ccc(C(=O)Nc2cc(-c3nc4ncccc4o3)ccc2C)cc1Br,active: 40%
6,CCCOc1ccccc1C(=O)N1CCCCC1CCN1CCCCC1 (stereo not drawn),inactive: 89%
7,CCC(=O)N1c2ccccc2CC1C(=O)NCCc1ccccc1OC (stereo not drawn),inactive: 123%
8,CCc1ccc(-n2nc(C)c3c(C(=O)Nc4ccc(Cl)cc4)cc(C)nc32)cc1,inactive: 66%
9,CCCCNC(=O)CSc1nc(-c2ccc(OC)cc2)cc(C(F)(F)F)n1,inactive: 66%
10,Cc1ccc(C)c(-c2ccc(=O)n(C(C)C(=O)Nc3ccccc3C(F)(F)F)n2)c1 (stereo not drawn),active: 41%
11,COc1cccc(-n2ccnc2SCC(=O)Nc2nc3ccc(C)cc3s2)c1,inactive: 116%
12,CC(=O)Nc1c(C)nn(-c2ccccc2)c1N1CCC(C(=O)Nc2ccc(C)cc2Cl)CC1,inactive: 72%
13,CCOC(=O)C1CCCN(C(=O)c2ccc(C)c(NC(=O)c3nsc4ccccc34)c2)C1 (stereo not drawn),inactive: 119%
14,COc1cccc(NC(=O)CSc2nnc3[nH]c(=O)cc(-c4ccccc4)n23)c1,inactive: 107%
15,CCCc1nc2nc(C)c(NS(=O)(=O)c3ccc(C)c(C)c3)c(=O)n2[nH]1,inactive: 129%
16,CCc1ccc(NS(=O)(=O)c2cc(Br)cc3c2N(C(C)=O)CC3)cc1,inactive: 53%
17,CC(=O)Nc1ccc(NC(=O)c2ccc3c(c2)CCN3S(=O)(=O)c2ccc(Cl)cc2)cc1,inactive: 113%
18,COc1ccc(OCc2nc(-c3ccc(OC)c(OC)c3)no2)cc1,inactive: 61%
